Results from PubChem BioAssay AID2100 (National Center for Advancing Translational Sciences (NCATS), 2009).
The whole screen tested about 300,000 compounds, of which about 1,200 (0.4%) were called active. This list was built around the results that the source calls inconclusive (neither active nor inactive); the mix of calls is not that of the screen. Calls come from the whole dose curve; as a rule, active = well fitted inhibition curve with a large enough effect; inconclusive = small, poorly fitted or top-dose-only effect, or another doubt; inactive = no such curve, though single readings can be large or run the other way. Potencies beside an inconclusive call are fits to weak or partial responses and may not hold up.

molecular target: Lysosomal alpha-glucosidase (Homo sapiens) (UniProt P10253); assay: qHTS Assay for Inhibitors and Activators of Human alpha-Glucosidase Cleavage of Glycogen; settings: recombinant GAA, glycogen substrate, Amplex Red glucose oxidase fluorescence; activity change, negative = inhibition: at 76.4 µM (top of the series) unless noted;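 for activity change, negative = inhibition: 0% = full enzyme reaction and -100% = no-enzyme basal signal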
In short: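 qHTS, 1536-well; enzyme 4 nM final; cpd up to 77 uM; substrate bovine liver glycogen 30 ug; 50 mM citrate/phosphate pH 5.0, 0.01% Tween-20; 37 C, 40 min; Amplex Red detection 45 min RT; Hill fit → AC50.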
Potency is the fitted concentration of half-maximal effect.

SMILES	Potency	activity change, negative = inhibition
Cc1cnn(CCC(=O)NNC(=S)Nc2ccc(F)cc2)c1	inconclusive: 28.2 µM [inhibitor, partial curve]	
COc1ccc(/C=N\NC(=O)c2ccc(=O)[nH]n2)cc1O	inconclusive: 25.1 µM [inhibitor, single point]	
CC(=O)Nc1sc2c(c1C(c1cccc(Cl)c1)N1CCN(CCO)CC1)CCCC2 (stereo not given)		inactive: 5.57%
Cc1nc(NS(=O)(=O)c2ccccc2)sc1NC(=O)Nc1ccccc1	inconclusive: 15.8 µM [inhibitor, partial curve]	
CCNC(=S)NNC(=O)c1csc2ccccc12	inconclusive: 12.5 µM [inhibitor, partial curve]	
O=C(Nc1ccc2nc(SCCOc3ccccc3Cl)sc2c1)c1ccco1		inactive: 4.09% [at 76.3 µM]
CC(C)OC(=O)c1c(NS(=O)(=O)c2ccccc2)sc2c1CCCC2	inconclusive: 31.6 µM [inhibitor, partial curve]	
COc1cccc(-c2nn(C)c3sc(C(=O)NCCc4cccc(C)c4)cc23)c1		inactive: -17.9% [at 76.3 µM]
O=c1cnnc(Nc2ccc(Nc3ccccc3)cc2)[nH]1	inconclusive: 22.4 µM [inhibitor, partial curve]	
CC(=O)c1ccc(NC(=S)NNC(=O)c2ccncc2)cc1	inconclusive: 28.2 µM [inhibitor, single point]	
O=C(CNc1ccc(F)cc1)N/N=C/C1CC=CCC1 (stereo not given)	inconclusive: 22.4 µM [inhibitor, partial curve]	
CC1C(=O)NN=C1C(=O)N/N=C/c1cccs1 (stereo not given)	inconclusive: 12.6 µM [inhibitor, partial curve]	
CCCc1sc(N/N=C/c2ccccn2)nc1-c1ccc(F)cc1	inconclusive: 35.5 µM [inhibitor, single point]	
CCOC(=O)c1[nH]nc(-c2cc(CC)c(O)cc2O)c1-c1cscn1	active: 12.5 µM	
CCOC(=O)N1CCN(c2ccc(Cl)cc2)CC1		inactive: -2.34%
Cc1ccc(N/C=C/C(=O)c2ccco2)c(O)c1	active: 8.91 µM	
O=C(Cc1ccc(Cl)cc1)Oc1cccc2cccnc12	inconclusive: 35.5 µM [inhibitor, single point]	
CC1=NNC(=O)C1CC(=O)N/N=C/c1ccncc1 (stereo not given)	inconclusive: 22.4 µM [inhibitor, single point]	
COC(=O)c1c(/N=C/N(C)C)sc2c1CCN(c1ncc(C(F)(F)F)cc1Cl)C2	inconclusive: 17.6 µM [activator, partial curve]	
Cc1ccc(Nc2nc(CSc3nnc(-c4ccncc4)n3-c3ccccc3C)cs2)cc1	inconclusive: 22.4 µM [inhibitor, partial curve]	
O=C1CSC(=S)N1/N=C/c1ccc(O)c(O)c1O	inconclusive: 8.91 µM [inhibitor, partial curve]	
COc1cc(CC2COC(=O)C2(O)Cc2ccc(O)c(OC)c2)ccc1O (stereo not given)	inconclusive: 11.2 µM [inhibitor, partial curve]	
Oc1nc(-c2ccc(Cl)cc2)n2ccncc12	inconclusive: 11.2 µM [inhibitor, single point]	
CC(C)(C)c1cc(/C=C2\NC(=O)NC2=O)cc(C(C)(C)C)c1O	inconclusive: 50.1 µM [inhibitor, single point]	

SMILES	Potency	activity change, negative = inhibition
CCOc1ccc(C(=O)c2cn(Cc3ccc(OC)cc3)c3cc(OC)c(OC)cc3c2=O)cc1		inactive: -8.14% [at 76.3 µM]
CN(C(=O)CSc1nc2ccc(NC(=O)CCc3ccccc3)cc2s1)c1ccccc1		inactive: -10.8% [at 76.3 µM]
N#C/C(=C\c1cccc(Cl)c1)C(=O)c1ccccc1		inactive: -0.182%
COc1ccc(OCC(O)CN2CCC(CN3C(=O)c4cccc5cccc(c45)C3=O)CC2)cc1 (stereo not given)	inconclusive: 28.2 µM [inhibitor, single point]	
Fc1ccccc1-c1n[nH]c(=S)n1/N=C/c1c[nH]c2ccccc12	inconclusive: 28.2 µM [inhibitor, single point]	
S=C(Nc1ccc(Nc2ccccc2)cc1)NN1CCOCC1	inconclusive: 11.2 µM [inhibitor, partial curve]	
CN(C)c1cc(Cl)c2nonc2c1N	active: 12.6 µM	
Cc1ccn2cc(-c3ccc(O)c(O)c3)nc2c1	inconclusive: 50.1 µM [inhibitor, single point]	
O=C(Nc1ncc(Cc2ccc(Cl)cc2)s1)c1ccc2c(c1)CC(c1ccccc1)OC2=O (stereo not given)	inconclusive: 50.1 µM [inhibitor, single point]	
CCOc1ccccc1C(=O)Nc1cc(-c2nc3cccnc3s2)ccc1C	inconclusive: 56.2 µM [inhibitor, partial curve, poor fit]	
COc1ccc(Nc2oc(-c3ccc(COc4ccccc4)o3)nc2C#N)cc1	inconclusive: 17.8 µM [inhibitor, partial curve]	
O=C1CCCc2nc(N3CCN(C(c4ccccc4)c4ccccc4)CC3)ncc21		inactive: -5.4%
CCOc1ccc(-c2cc(CCCC(=O)NCCc3ccc(OC)c(OC)c3)no2)cc1	inconclusive: 11.2 µM [inhibitor, single point]	
COC(=O)c1nn(-c2ccc(OC)cc2)c(=O)c2c(N)sc(C)c12		inactive: -8.52%
O=C(NNS(=O)(=O)c1cc(Cl)cc(Cl)c1)c1sccc1-n1cccc1	inconclusive: 15.8 µM [inhibitor, partial curve]	
CC1(C)CC(=O)C2=C(C1)c1c(ccc3ccccc13)NC2c1cc([N+](=O)[O-])cc([N+](=O)[O-])c1O (stereo not given)	inconclusive: 39.5 µM [inhibitor, single point]	
Cc1c(NC(=O)C(F)(F)F)ccc2nc3c(=O)n(C)c(=O)n(C)c3nc12		inactive: -3.15% [at 76.3 µM]
COc1ccc(-c2cc(-c3ccc4c(c3)NC(=O)CO4)nc3c2COc2ccc(C)cc2-3)cc1		inactive: 12.6% [at 76.3 µM]
CN(C)NC(=S)Nc1cccc(Cl)c1	inconclusive: 39.8 µM [inhibitor, single point]	
CCOC(=O)C1CCCN(CC(=O)NC2=Nc3ccccc3N=C(C)C2c2ccccc2)C1 (stereo not given)	inconclusive: 28 µM [inhibitor, partial curve]	
CCc1ccc(S(=O)(=O)N2CCN(c3ccc(Cl)c(Cl)c3)CC2)cc1		inactive: -11% [at 76.3 µM]
O=[N+]([O-])c1ccccc1/C=N/N1CCN(Cc2ccccc2)CC1	inconclusive: 39.8 µM [inhibitor, partial curve]	
O=C(O)c1cc(N/N=C/c2ccncc2)ccc1Cl	inconclusive: 12.6 µM [inhibitor, partial curve]	
Cn1c(SCC(=O)c2ccccc2F)nnc1C1CC1		inactive: -2.52%

SMILES	Potency	activity change, negative = inhibition
COc1cc(O)ccc1-c1nc2cc(C)ccn2c1Nc1ccccc1C	active: 12.6 µM	
Cc1ccc(O)c(Nc2c3ccccc3nc3ccccc23)c1	active: 11.2 µM	
CC(C)(O)C1Cc2cc(/C=C/C(=O)O)c(O)cc2O1 (stereo not given)	inconclusive: 22.2 µM [inhibitor, partial curve]	
COc1ccc(C2c3sc(=O)[nH]c3SC3C(=O)N(c4ccccc4)C(=O)C32)cc1 (stereo not given)	inconclusive: 28 µM [inhibitor, partial curve]	
Cc1cccc(C=Nc2ccc3c4c(cccc24)CC3)c1O	active: 14.1 µM	
COc1ccc(C(=O)NNC(=O)C(=O)/C=C(\O)c2ccc(C)cc2)cc1	inconclusive: 50.1 µM [inhibitor, single point]	
Cc1ccc2c(c1)N(C(=O)CCC(=O)NCCCN1CCN(C)CC1)CC(C)O2 (stereo not given)	inconclusive: 56.2 µM [inhibitor, single point]	
N#CCC(=O)NNc1c([N+](=O)[O-])cc(C(F)(F)F)cc1[N+](=O)[O-]	inconclusive: 14.1 µM [inhibitor, partial curve]	
CCn1c2ccccc2c2nnc(NN)nc21	inconclusive: 28.2 µM [activator, partial curve]	
Cc1c(N=Cc2ccccn2)c(=O)n(-c2ccccc2)n1C	active: 12.6 µM	
S=C(NN=C1CCN(Cc2ccccc2)CC1)NC1CCCCC1	inconclusive: 10 µM [inhibitor, partial curve]	
CC(NC(=O)C1CCN(C(=O)N2CCOc3ccc(Cl)cc32)CC1)c1ccccc1 (stereo not given)	inconclusive: 39.8 µM [activator, single point]	
Cc1snc(SCC(=O)c2ccc([N+](=O)[O-])cc2)c1C#N	inconclusive: 39.5 µM [inhibitor, single point]	
Cc1nc2ncccn2c1-c1csc(Nc2ccc(O)cc2)n1	active: 22.4 µM	
O=C(NNc1ccc([N+](=O)[O-])cc1)C1CC2CCCC(C1)C2=O (stereo not given)	inconclusive: 14.1 µM [inhibitor, single point]	
COc1ccc(C(=S)Nc2ccc(N(C)C)cc2)cc1	inconclusive: 11.1 µM [inhibitor, partial curve]	
CNC(=S)N/N=C(\C)c1ccc(N2CCOCC2)cc1	inconclusive: 39.8 µM [inhibitor, single point]	
CC(C(=O)NC1CCCC1)N(C(=O)CS(=O)CC(=O)Nc1ccc(F)cc1)c1ccc2c(c1)OCCO2 (stereo not given)	inconclusive: 39.8 µM [inhibitor, single point]	
CCOc1ccc(C(=O)Nc2cc3c(cc2N2CCCC2)n(CC)c(=O)n3CC)cc1OCC	inconclusive: 35.5 µM [inhibitor, single point]	
CC1(C)C(c2cccs2)=NC(c2ccccc2)N1O (stereo not given)	inconclusive: 14 µM [inhibitor, partial curve]	
COc1ccc(N2CCN(C(=O)c3ccccc3NS(=O)(=O)c3ccccc3)CC2)cc1	inconclusive: 8.91 µM [inhibitor, partial curve]	
Cc1nnc(Nc2ccc(O)cc2)[nH]c1=O	inconclusive: 25.1 µM [inhibitor, partial curve]	
